Results on 115 sequences are retold here after the BET-seq Pho4 binding data (Le et al. 2018).

Some of the results follow. These are noisy estimates, calculated here from bound and input reads.

In the assay the target is T1, Pho4 (S. cerevisiae) (UniProt P07270).
T1 sequence: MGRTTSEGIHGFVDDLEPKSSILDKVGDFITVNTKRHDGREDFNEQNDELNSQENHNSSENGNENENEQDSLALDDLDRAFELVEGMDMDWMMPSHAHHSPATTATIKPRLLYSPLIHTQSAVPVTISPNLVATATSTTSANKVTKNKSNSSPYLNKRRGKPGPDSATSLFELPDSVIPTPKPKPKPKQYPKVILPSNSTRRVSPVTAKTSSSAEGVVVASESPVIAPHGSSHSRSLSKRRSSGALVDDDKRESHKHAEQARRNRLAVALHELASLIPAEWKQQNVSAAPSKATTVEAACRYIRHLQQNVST
The assay can be described thus: relative binding free energy (BET-seq); higher = weaker binding. To be noted: reference: library average.
For GGTAGCACGTGTATTA, the “relative binding free energy” value was determined as 0 kcal/mol.
Turning to GGTTTCACGTGAAGGT, the “relative binding free energy” value was determined as 0.4 kcal/mol.
The figure for TTAAACACGTGAAAGG is 0.29 kcal/mol.
In the case of GCGGTCACGTGTGGTT, the “relative binding free energy” value stood at 0.18 kcal/mol.
Under GGGTCCACGTGGAGGG stands -0.07 kcal/mol; under TTTTACACGTGAACGT, 0.17 kcal/mol; under TAAATCACGTGATGAG, 0.3 kcal/mol.
Under ATTGCCACGTGTGTTG stands -0.12 kcal/mol.
Under GGGAGCACGTGCAGGG stands -0.02 kcal/mol; under TTGAGCACGTGCTAGG, -0.2 kcal/mol.
As to ATGTGCACGTGTAGGT, the “relative binding free energy” value was determined as 0.01 kcal/mol.
The figure for GTCTGCACGTGGAAGG is 0.02 kcal/mol; for TTGAACACGTGCTGTG it is -0.07 kcal/mol.
Turning to GGTTTCACGTGTGCTA, the “relative binding free energy” value was 0.32 kcal/mol.
Under TGTGTCACGTGGGTCC stands -0.13 kcal/mol; under TTTTGCACGTGAGATA, 0.02 kcal/mol; under GTGAGCACGTGAGAGT, 0.11 kcal/mol.
Under CGTGGCACGTGAGAGG stands 0.13 kcal/mol; under CTGATCACGTGAGGTT, 0.45 kcal/mol.
The figure for ATCTCCACGTGTAGGG is 0.07 kcal/mol; for TAATGCACGTGGAGTC it is 0.13 kcal/mol.
As to TACGGCACGTGGGTAA, the “relative binding free energy” value is -0.15 kcal/mol.
Under GGGTTCACGTGAGGGC stands 0.42 kcal/mol.
In the case of GAGGTCACGTGACGTA, the “relative binding free energy” value was found to be 0.4 kcal/mol.
Under TTATGCACGTGGTGAA stands -0.14 kcal/mol; under AGTTGCACGTGGAAGG, -0.06 kcal/mol; under GTCATCACGTGTGTTG, 0.17 kcal/mol.
With GGGGGCACGTGCAGGC, the “relative binding free energy” value was -0.06 kcal/mol.
The figure for GACTACACGTGGGGGT is 0.1 kcal/mol.
Consider GTTTGCACGTGGTCCG, for which the “relative binding free energy” value is 0.05 kcal/mol.
The figure for TCCTGCACGTGTAGGT is -0.07 kcal/mol.
On to TTTTTCACGTGTCTGA, for which the “relative binding free energy” value came out at 0.31 kcal/mol.
The figure for TAGGTCACGTGCATTG is 0.17 kcal/mol; for GTTGCCACGTGTTCGG it is 0.11 kcal/mol.
As for ATTAGCACGTGCGTTG, the “relative binding free energy” value was -0.13 kcal/mol.
The figure for TGTGACACGTGCTGTT is -0.01 kcal/mol; for TATTTCACGTGCTGTC it is 0.4 kcal/mol; for GGTCGCACGTGCCGGG it is -0.18 kcal/mol.
Turning to ATAACCACGTGGGTTG, the “relative binding free energy” value is -0.26 kcal/mol.
Under CGGTGCACGTGGCGGC stands -0.17 kcal/mol; under GGCGTCACGTGTTGTA, 0.15 kcal/mol.
The figure for CTTGGCACGTGTTTAG is -0.03 kcal/mol.
Under TCTGGCACGTGTTTCT stands 0 kcal/mol; under ATGGACACGTGGCGTT, -0.1 kcal/mol; under CGAGGCACGTGGCTGT, 0.01 kcal/mol.
As to TTCATCACGTGAGTGT, the “relative binding free energy” value came out at 0.28 kcal/mol.
The figure for TGATTCACGTGTTTAT is 0.22 kcal/mol; for TTCATCACGTGGGATT it is 0 kcal/mol; for TAGGTCACGTGATCGG it is 0.26 kcal/mol.
The figure for TAAGGCACGTGAGTTC is 0.08 kcal/mol; for GTTATCACGTGCGGAT it is 0.08 kcal/mol.
Under GGAAGCACGTGGGGGT stands -0.19 kcal/mol.
Consider GAGGTCACGTGAAGTA, for which the “relative binding free energy” value was 0.45 kcal/mol.
Under TTGGACACGTGGTGAA stands 0.04 kcal/mol; under TGGTTCACGTGCGGTA, 0.22 kcal/mol.
The figure for GTTGGCACGTGTTTTG is 0.1 kcal/mol; for GTGAACACGTGCGAGT it is 0.02 kcal/mol.
Under TTCGACACGTGTGGGC stands 0.27 kcal/mol.
For AGCCGCACGTGTGTGG, the “relative binding free energy” value was -0.1 kcal/mol.
In the case of TAAATCACGTGATAGT, the “relative binding free energy” value came out at 0.1 kcal/mol.
The figure for CTATACACGTGGGTTG is -0.24 kcal/mol; for GGTATCACGTGATAGG it is 0.29 kcal/mol.
Under TCGTTCACGTGTGCAG stands 0.28 kcal/mol; under AGACTCACGTGTTGTA, 0.34 kcal/mol.
As for GTTGGCACGTGGAGTG, the “relative binding free energy” value was 0.03 kcal/mol.
As for GCGAGCACGTGGTTAT, the “relative binding free energy” value is -0.03 kcal/mol.
Under GGTATCACGTGGTAGG stands 0.14 kcal/mol.
The figure for CGCGGCACGTGGGGGC is -0.25 kcal/mol; for ATTCGCACGTGTTAAG it is 0.03 kcal/mol; for GTCGACACGTGTTGAT it is 0.14 kcal/mol.
The figure for GTGCTCACGTGAATGT is 0.51 kcal/mol.
Regarding GGAAACACGTGGTCGG, the “relative binding free energy” value is -0.06 kcal/mol.
Under GTAGGCACGTGGTAGT stands -0.17 kcal/mol; under CCGGGCACGTGTTAGT, 0 kcal/mol.
The figure for GATCTCACGTGATGGT is 0.22 kcal/mol.
For the sequence AAGTACACGTGGTCTT, the “relative binding free energy” value is -0.05 kcal/mol.
The figure for GGGTTCACGTGTCAGG is 0.36 kcal/mol; for GTTGCCACGTGGCTGT it is 0.07 kcal/mol.
Under GGATTCACGTGGAAGG stands 0.24 kcal/mol; under TGTGTCACGTGAGGTG, 0.29 kcal/mol; under AGTAACACGTGTTTAG, 0.04 kcal/mol.
Under GGTGGCACGTGAAGAA stands 0.15 kcal/mol; under ATTGACACGTGAGATT, 0.3 kcal/mol.
Consider CTGTTCACGTGCGATG, for which the “relative binding free energy” value amounted to 0.38 kcal/mol.
Consider TTCGACACGTGGTTTG, for which the “relative binding free energy” value worked out at 0.05 kcal/mol.
Under AGCTGCACGTGATAGG stands 0.2 kcal/mol.
As for CTGGCCACGTGTGAGG, the “relative binding free energy” value was 0.09 kcal/mol.
For ATGTGCACGTGCGTTT, the “relative binding free energy” value was -0.14 kcal/mol.
Under TGTTTCACGTGAGCAT stands 0.25 kcal/mol.
The figure for CATGTCACGTGTGGTT is 0.2 kcal/mol; for ATGAGCACGTGGTGTA it is -0.15 kcal/mol; for GATTTCACGTGGGCTA it is 0.33 kcal/mol.
Regarding GTGAGCACGTGATAGC, the “relative binding free energy” value came out at 0.17 kcal/mol.
The figure for ACGGGCACGTGAGGTT is 0.15 kcal/mol; for CGTGGCACGTGGGCGA it is -0.22 kcal/mol.
Under GAATTCACGTGAGGGA stands 0.56 kcal/mol.
The figure for GGTGGCACGTGGTCAA is -0.15 kcal/mol; for CGATGCACGTGCAGGG it is -0.07 kcal/mol; for AGGATCACGTGGAATG it is 0.16 kcal/mol.
On to ATAGACACGTGAATTG, for which the “relative binding free energy” value is 0.29 kcal/mol.
With GTTGGCACGTGGGATT, the “relative binding free energy” value is -0.03 kcal/mol.
Under TTGTGCACGTGTTCGC stands 0 kcal/mol; under ATAGTCACGTGATTTC, 0.16 kcal/mol; under TGAAGCACGTGTCTAG, 0 kcal/mol.
Regarding TGTGCCACGTGGAAGT, the “relative binding free energy” value was -0.07 kcal/mol.
For the sequence CGAAGCACGTGAGGGT, the “relative binding free energy” value turned out to be 0.08 kcal/mol.
The figure for CAGTTCACGTGGGATT is 0.16 kcal/mol; for TGACTCACGTGTGATT it is 0.27 kcal/mol; for TTGTTCACGTGCAATA it is 0.32 kcal/mol.
Under CGGTACACGTGTGGTA stands 0.1 kcal/mol.
Under ATGTGCACGTGGATAG stands -0.15 kcal/mol; under GGTTACACGTGGGTGA, 0.04 kcal/mol; under TAATCCACGTGAGGGT, 0.15 kcal/mol.
Turning to TGGGCCACGTGATATG, the “relative binding free energy” value was found to be 0.06 kcal/mol.
AAGATCACGTGGGCAT: the “relative binding free energy” value amounted to 0.11 kcal/mol.
